Laboratory results taken from PMC6602471.
The list shows a part of the results. At the low end of the ranking the order means little.

Molecular target: T1, ETS1 (UniProt P14921)
T1 sequence: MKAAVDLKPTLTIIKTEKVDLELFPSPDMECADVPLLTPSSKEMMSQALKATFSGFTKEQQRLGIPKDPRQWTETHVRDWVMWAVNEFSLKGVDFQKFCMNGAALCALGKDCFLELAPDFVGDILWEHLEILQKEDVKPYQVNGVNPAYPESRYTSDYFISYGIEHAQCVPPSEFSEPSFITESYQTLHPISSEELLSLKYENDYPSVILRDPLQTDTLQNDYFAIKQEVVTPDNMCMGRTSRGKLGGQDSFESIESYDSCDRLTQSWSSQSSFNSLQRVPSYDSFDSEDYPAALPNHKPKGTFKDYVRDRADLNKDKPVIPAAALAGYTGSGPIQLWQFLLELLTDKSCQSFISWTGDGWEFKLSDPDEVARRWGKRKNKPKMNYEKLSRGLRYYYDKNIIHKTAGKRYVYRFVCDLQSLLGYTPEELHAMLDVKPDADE
Experiment: custom PBM
Conditions: custom protein-binding microarray; buffer, salt, pH and temperature not stated; high values mean tight binding; double strand, one strand shown

| Sequence | binding signal (log fluorescence intensity) |
| --- | --- |
| TAAATGGAAGACGGTTGTGGTAGTTCCGGGTATTAAGTCTTGATTCGCTTGACGCTGCTG | 8.49 |
| GGAAAAAGGCCCAGGGTAACACCGCAAGTGGGCTTAGTCTTGATTCGCTTGACGCTGCTG | 8.1 |
| TAAAGGGAAGACGGTTGGGGTAGTTCCGGGTATTAAGTCTTGATTCGCTTGACGCTGCTG | 8.62 |
| TCCGGCTACCAGCTCCACTCACTTCAGGCCTTGTAGGTCTTGATTCGCTTGACGCTGCTG | 8.4 |
| CAGGGACTTGACCCAACTCTGCCACGTGGGTCGTTTGTCTTGATTCGCTTGACGCTGCTG | 8.19 |
| GTGTATAGGATCCCATCCAACACACGTGTTAAGATGGTCTTGATTCGCTTGACGCTGCTG | 8.25 |
| GCTGCTGCGGTGCATACCCCACCGGATGCGACCCCGGTCTTGATTCGCTTGACGCTGCTG | 9.3 |
| CACAATTTTTACAGTAATGTATCACGCGTAACTCCTGTCTTGATTCGCTTGACGCTGCTG | 8.06 |
| TACTGACTTATAGATGCGAATGCACATGAATAGACCGTCTTGATTCGCTTGACGCTGCTG | 8.45 |
| TACTGACTTATCTATGCGAATGCACATGAATAGACCGTCTTGATTCGCTTGACGCTGCTG | 8.13 |
| TGTCGGGTAAGGGAATGTAGATCACGTGAATCAAAAGTCTTGATTCGCTTGACGCTGCTG | 8.24 |
| CACAATTTTTACAGAAATGTAGCACGCGTAACTCCTGTCTTGATTCGCTTGACGCTGCTG | 8.38 |
| CGGAAGTGTCGTAAACGTCGGATATCCGGTTGTTCTGTCTTGATTCGCTTGACGCTGCTG | 11.9 |
| CACGATTTTTACAGTAATGTAGCACGCGTAACTCCTGTCTTGATTCGCTTGACGCTGCTG | 8.33 |
| CTGGGACTTGACCCAACTCTGCCACGTGGATCGTTTGTCTTGATTCGCTTGACGCTGCTG | 8.03 |
| TCCGGCTACCGGCTCCACCCACTTCAGGCCTTGTAGGTCTTGATTCGCTTGACGCTGCTG | 8.32 |
| GGAAAAAGGCGCAGGGTAACACCGGAAGTGGGCTTAGTCTTGATTCGCTTGACGCTGCTG | 11.9 |
| GTGTATAGGATCCCATCCAACACACGTGGTAAAATGGTCTTGATTCGCTTGACGCTGCTG | 8.22 |
| GGAAAAAGGCCCAGGGTAACACCGGAAGTGGGCTTGGTCTTGATTCGCTTGACGCTGCTG | 11.8 |
| CTGGGACTTGACCCAACTCTGCCACCTGGGTCGTTTGTCTTGATTCGCTTGACGCTGCTG | 8.18 |
| CGGAAGTGTCGTAAACTTCGGATATCCGGTTCTTCTGTCTTGATTCGCTTGACGCTGCTG | 11.9 |

| Sequence | binding signal (log fluorescence intensity) |
| --- | --- |
| GTGTATAGGATCCCATCCAACAGACGTGTTAAAATGGTCTTGATTCGCTTGACGCTGCTG | 8.07 |
| CACAATTTATACAGTAATGTAGCACGCGTAACTCCTGTCTTGATTCGCTTGACGCTGCTG | 8.23 |
| CGGAAGTGTCGTAAACGTCGGATAACCGGTTCTTCTGTCTTGATTCGCTTGACGCTGCTG | 8.34 |
| GATTAATTTCAGCCCTTATTCGCACGTGCCATAACAGTCTTGATTCGCTTGACGCTGCTG | 8.2 |
| CGGAAGTGTCGTAAACGTCGGATATCCGGTTCTTGTGTCTTGATTCGCTTGACGCTGCTG | 11.9 |
| CTGGGACTTGACCCAACTCTGCCACGTGGGTCGTTAGTCTTGATTCGCTTGACGCTGCTG | 8.07 |
| CAGCATAGGACTTCTTCCCTGAAGCATTTGATAACCGTCTTGATTCGCTTGACGCTGCTG | 8.31 |
| GATTAATCTCTGCCCTTATTCGCACGTGCCATAACAGTCTTGATTCGCTTGACGCTGCTG | 8.31 |
| TCCGGCTACCAGCTCCACCCACTTCAGGCCTTGTATGTCTTGATTCGCTTGACGCTGCTG | 8.26 |
| CTGGTACTTGACCCAACTCTGCCACGTGGGTCGTTTGTCTTGATTCGCTTGACGCTGCTG | 8.09 |
| TAAAGGGAAGACGGTTGTGGTACTTCCGGGTATTAAGTCTTGATTCGCTTGACGCTGCTG | 11.5 |
| GGAAAAAGACCCAGGGTAACACCGGAAGTGGGCTTAGTCTTGATTCGCTTGACGCTGCTG | 12 |
| GATTAATTTCTGCCCTTATTCGGACGTGCCATAACAGTCTTGATTCGCTTGACGCTGCTG | 8.29 |
| CACAATTTTTACAGTAATGTAGCACGCCTAACTCCTGTCTTGATTCGCTTGACGCTGCTG | 8.15 |
| TCCGGCTACCAGCTCCACCCACTTCACGCCTTGTAGGTCTTGATTCGCTTGACGCTGCTG | 8.08 |
| GGAAAAAGGCCCAGGGTAACACCAGAAGTGGGCTTAGTCTTGATTCGCTTGACGCTGCTG | 8.28 |
| CACAATTTTTACAGTAATGTAGCGCGCGTAACTCCTGTCTTGATTCGCTTGACGCTGCTG | 8.26 |
| GTGTATAGGATCCCATCCAACACACGTGTTAAAAAGGTCTTGATTCGCTTGACGCTGCTG | 8.07 |
| CGCAATTTTTACAGTAATGTAGCACGCGTAACTCCTGTCTTGATTCGCTTGACGCTGCTG | 8.34 |
| TGTCGGGTAAGGGAATGTAGATCACGTGAATAAAAAGTCTTGATTCGCTTGACGCTGCTG | 8.28 |
| TACTGACTTGTATATGCGAATGCACATGAATAGACCGTCTTGATTCGCTTGACGCTGCTG | 8.14 |

| Sequence | binding signal (log fluorescence intensity) |
| --- | --- |
| GTGTATAGGATCCCATCCAACACACGTGTTAAAATAGTCTTGATTCGCTTGACGCTGCTG | 8.36 |
| TCCGGATACCAGCTCCACCCACTTCAGGCCTTGTAGGTCTTGATTCGCTTGACGCTGCTG | 8.36 |
| TGTCTGGTAAGGGAATGTAGATCACGTGAATGAAAAGTCTTGATTCGCTTGACGCTGCTG | 8.43 |
| GATTAATTTCTGCCCTTATACGCACGTGCCATAACAGTCTTGATTCGCTTGACGCTGCTG | 8.05 |
| CAGCATAGTACTTCTTCCCTGAAGCAATTGATAACCGTCTTGATTCGCTTGACGCTGCTG | 8.23 |
| CTGGGACTTGACCCAACTCTGCCACGCGGGTCGTTTGTCTTGATTCGCTTGACGCTGCTG | 8.26 |
| CAGCATAGGCCTTCTTCCCTGAAGCAATTGATAACCGTCTTGATTCGCTTGACGCTGCTG | 8.15 |
| TCCGGCTACCAGTTCCACCCACTTCAGGCCTTGTAGGTCTTGATTCGCTTGACGCTGCTG | 8.32 |
| CGGAAGTGTCGTAAACGGCGGATATCCGGTTCTTCTGTCTTGATTCGCTTGACGCTGCTG | 12.4 |
| TCCGGCTACCAGCTCCACCCACTTCGGGCCTTGTAGGTCTTGATTCGCTTGACGCTGCTG | 8.02 |
| TAGCATAGGACTTCTTCCCTGAAGCAATTGATAACCGTCTTGATTCGCTTGACGCTGCTG | 8.12 |
| CGGAAGTGTCGTAATCGTCGGATATCCGGTTCTTCTGTCTTGATTCGCTTGACGCTGCTG | 11.8 |
| CACAATTTTTACAGTAATGTAGCAAGCGTAACTCCTGTCTTGATTCGCTTGACGCTGCTG | 8.17 |
| CACAATTTTTACAGTGATGTAGCACGCGTAACTCCTGTCTTGATTCGCTTGACGCTGCTG | 8.31 |
| CGGAAGTGTCGTAAACGTCGGATAGCCGGTTCTTCTGTCTTGATTCGCTTGACGCTGCTG | 8.18 |
| GTGTATCGGATCCCATCCAACACACGTGTTAAAATGGTCTTGATTCGCTTGACGCTGCTG | 8.32 |
| TACAATTTTTACAGTAATGTAGCACGCGTAACTCCTGTCTTGATTCGCTTGACGCTGCTG | 8.23 |
| TCCGGCTACCAGCGCCACCCACTTCAGGCCTTGTAGGTCTTGATTCGCTTGACGCTGCTG | 8.26 |
| CAGCATAGGACTTCTCCCCTGAAGCAATTGATAACCGTCTTGATTCGCTTGACGCTGCTG | 8.24 |
| GATTAATTTCTGCCCTTAATCGCACGTGCCATAACAGTCTTGATTCGCTTGACGCTGCTG | 8.13 |
| GCTGTTGCGGTGCATACCCCACCGGATGTGACCCCGGTCTTGATTCGCTTGACGCTGCTG | 10.3 |

| Sequence | binding signal (log fluorescence intensity) |
| --- | --- |
| CTGGGACTTGTCCCAACTCTGCCACGTGGGTCGTTTGTCTTGATTCGCTTGACGCTGCTG | 8.25 |
| TCCGGCTACCAGCTCCACCCATTTCAGGCCTTGTAGGTCTTGATTCGCTTGACGCTGCTG | 8.26 |
| TACTGACTTATATATGCGAATGCACATGAATAGACTGTCTTGATTCGCTTGACGCTGCTG | 8.24 |
| GGAAAAACGCCCAGGGTAACACCGGAAGTGGGCTTAGTCTTGATTCGCTTGACGCTGCTG | 12.1 |
| CTGTGACTTGACCCAACTCTGCCACGTGGGTCGTTTGTCTTGATTCGCTTGACGCTGCTG | 8.31 |
| GGAAAAAGGCCCAGGGTAACAGCGGAAGTGGGCTTAGTCTTGATTCGCTTGACGCTGCTG | 10.2 |
| TCCGGCTACCAGCTCGACCCACTTCAGGCCTTGTAGGTCTTGATTCGCTTGACGCTGCTG | 8.17 |
| GCTGCCGCGGTGCATACCCCACCGGATGTGACCCCGGTCTTGATTCGCTTGACGCTGCTG | 10.7 |
| GTGTATAGGAGCCCATCCAACACACGTGTTAAAATGGTCTTGATTCGCTTGACGCTGCTG | 8.2 |
| TGTCGGGTAAGTGAATGTAGATCACGTGAATGAAAAGTCTTGATTCGCTTGACGCTGCTG | 8.14 |
| GTGTATAGGATCCCATCCAACGCACGTGTTAAAATGGTCTTGATTCGCTTGACGCTGCTG | 8.28 |
| GATTAATTTCTGCCCTTATTCACACGTGCCATAACAGTCTTGATTCGCTTGACGCTGCTG | 8.22 |
| TCCGGCTACCCGCTCCACCCACTTCAGGCCTTGTAGGTCTTGATTCGCTTGACGCTGCTG | 8.11 |
| CATAATTTTTACAGTAATGTAGCACGCGTAACTCCTGTCTTGATTCGCTTGACGCTGCTG | 8.23 |
| TCCGGCTACCAGCTCCACCCACTTCAGGCTTTGTAGGTCTTGATTCGCTTGACGCTGCTG | 8.22 |
| TCCGGCTACCAGCTCCACGCACTTCAGGCCTTGTAGGTCTTGATTCGCTTGACGCTGCTG | 8.13 |
| TCCGGCTACCATCTCCACCCACTTCAGGCCTTGTAGGTCTTGATTCGCTTGACGCTGCTG | 8.2 |
| CTGGGACTTGACCCAACCCTGCCACGTGGGTCGTTTGTCTTGATTCGCTTGACGCTGCTG | 8.32 |
